Laboratory results as given in PubChem BioAssay (NCI).
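48-hour exposure; five concentrations; linearly interpolated endpoints. The concentration for 50% growth inhibition is given as GI50. TGI: concentration producing complete growth inhibition.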

system: NCI-H322M lung; experiment: growth of human tumour cells (NCI), 48 h

| SMILES | TGI [µM] | GI50 [µM] |
| --- | --- | --- |
| Nc1nc(SCc2ccc([N+](=O)[O-])cc2)nc2c1ncn2C1OC(CO)C(O)C1O (configuration not stated) | > 100 | – |
| CCOP(=O)(OCC)C(Nc1ccc(Br)cc1)c1cccc([N+](=O)[O-])c1 (configuration not stated) | 60.3 | – |
| COc1cc(-c2cc(-c3ccccc3)nc(-c3c(OC)ccc4c(C)cc(=O)oc34)c2)cc(OC)c1OC | > 100 | – |
| C[C@H](CCC(=O)O)[C@H]1CC[C@@]2(C)[C@@H]3C(=O)C[C@H]4C(C)(C)[C@@H](O)CC[C@]4(C)[C@H]3C(=O)C[C@]12C | > 100 | – |
| c1ccc(CN2CCC3(CC2)SSC2(CCN(Cc4ccccc4)CC2)S3)cc1 | > 100 | – |
| C=CCOC(=O)NC1C(OC(C)[C@@H](NC(=O)OCc2ccccc2)C(=O)OC(C)(C)C)OC(COC(C)=O)C(OC(C)=O)C1OC(C)=O (some centres not stated) | > 100 | – |
| O=c1c2ccccc2c(=O)n2n1CC=CC2 | > 100 | – |
| COC(=O)CC1NC(=O)[C@@H]1C(C)O (some centres not stated) | > 100 | – |
| COc1cc(NC(C)CCCN)c2ncccc2c1 (configuration not stated) | > 100 | – |
| CC1(N)CCN(c2cccnc2NC(=O)c2nc(-c3ncccc3C(F)(F)F)cnc2N)CC1 | > 100 | 55.6 |
| CCOc1ccc(/C(Cl)=C(\C=O)c2ccc(OC)c(OC)c2)cc1OCC | > 100 | – |
| CC(C)(C)c1cc(C2=NNC(c3ccccc3)C2)cc(C(C)(C)C)c1O (configuration not stated) | 55.3 | – |
| COCC(O)Cn1ccnc1[N+](=O)[O-] (configuration not stated) | > 100 | – |
| CCOP(=O)(OCC)C(C)(CC)N/C(=N/C(NC(C)=O)(C(F)(F)F)C(F)(F)F)NC1=NC(C(F)(F)F)(C(F)(F)F)N=C(C(F)(F)F)O1 (configuration not stated) | > 100 | – |
| COc1cc2c3c(n(CCCCN)c(=O)c2cc1OC)-c1cc2c(cc1C3=O)OCO2 | 8.58 | 2.85 |
| Nc1ccc2c(SCc3ccc([N+](=O)[O-])cc3)c3ccccc3nc2c1 | 60.9 | – |
| O=S(Nc1ccccc1)c1cccc(Cl)c1 (configuration not stated) | > 100 | – |
| Nc1nc(SCCc2ccccc2)nc2nc3c(c(-c4ccccc4)c12)CCCC3 | > 100 | – |
| O=c1[nH]nc2ccccc2c1Cc1ccccc1 | > 100 | – |
| O=c1c2nc3ccccc3c(=O)n2ncn1-c1ccccc1Cl | > 100 | – |
| COc1cc(Nc2c(C#N)cnc3cc(OCCCN4CCN(C)CC4)c(OC)cc23)c(Cl)cc1Cl | 9.19 | 0.395 |
| O=CN/C=C/c1cccc(O)c1 | > 95.7 | – |
| O=C(O)C1OC1(c1cccc(Cl)c1)c1ccccc1Cl (configuration not stated) | > 100 | – |
| O=C(O)C1C2CCC(O2)C1C(=O)Nc1cccc2cccnc12 (configuration not stated) | > 100 | – |

| SMILES | TGI [µM] | GI50 [µM] |
| --- | --- | --- |
| O=C(NCCNCCCNC(=O)c1cc(-c2ccccc2)nc2ccccc12)c1cccc(O)c1O | > 100 | – |
| CC(C)CC(NC(=O)OC(C)(C)C)C(=O)Nc1ccc(Nc2nc(F)nc(-c3c4ccccc4c4n3CCS4)n2)cc1 (configuration not stated) | 50.3 | – |
| Cn1c(O)c(C=Nc2ccccc2[N+](=O)[O-])c(=O)n(C)c1=O | > 100 | – |
| Cc1ccc(NC2=CC(=O)C(NO)c3ccccc32)cc1 (configuration not stated) | 23.5 | – |
| C=CCC(N(C)C(=O)[C@H](Cc1ccccc1)NC(=O)OCc1ccccc1)P(=O)(Oc1ccccc1)Oc1ccccc1 (some centres not stated) | > 100 | – |
| Nc1ccccc1S(=O)(=O)c1ccccc1 | > 100 | – |
| CN1CCN(CCOc2ccc(-c3cnc4c(-c5ccc(C(F)(F)F)cc5)cnn4c3)cc2)CC1 | 3 | 1.63 |
| CC[C@]1(Cc2ccc(OC)c(OC)c2)C=[N+]([O-])O[C@H](OC2CCCC2(c2ccccc2)c2ccccc2)[C@@H]1OC(C)=O (some centres not stated) | 9.02 | – |
| CC1CN(c2ccc(Cl)cc2)CC(C)OC(=O)O1 (configuration not stated) | > 100 | – |
| COC1/C=C/C(C)C(C(C)C(OC)C(C)CCC(=O)C(C)C(C/C=C/N(C)C=O)OC)OC(=O)/C=C/C=C(\C)CC(OC)CC2=CC(=O)O[C@H](C2)C(C)C(OC)CC(OC)/C=C/C(C)C(OC)C1 (some centres not stated) | – | 0.0141 |
| COc1cc2c(cc1O)CC[C@@H]1[C@@H]2CC[C@]2(C)[C@@H](OCCN(C)C)CC[C@@H]12 | 5.44 | 0.633 |
| Cc1cccc(CP(Cc2cccc(C)c2)CC2(Cp3c4ccccc4c4ccccc43)COC2)c1 | > 100 | – |
| NC(=O)c1ccccc1Nc1ccc2nnc(-c3ccncc3)n2n1 | 14.9 | 3.63 |
| Cc1nn(C(=O)Cc2ccccc2)c2c1C(c1ccc(O)cc1O)SC(N)=N2 (configuration not stated) | > 100 | – |
| CC1=NN(c2nc(N)nc(CSc3nc4n(c(=S)n3)CCN4)n2)C(C)(C)C1 | 89.6 | – |
| [N-]=[N+]=CC(=O)c1ccccc1C#CCCc1ccccc1 | > 100 | – |
| CCCCCCCCC/C=C/C=C/C(=O)NCC(=O)NC1C(O)C(O)C(Nc2ncnc3nc[nH]c23)OC1C(O)CO (configuration not stated) | 0.0317 | – |
| O=S(=O)(Nc1ccc(Br)c(Cl)c1)c1ccc(-c2cnc(C3CC3)o2)cc1 | 22.2 | 2.86 |
| CNc1ccc2c(c1)[C@@]1(C)c3ccccc3[C@@H](C2)N1C | > 100 | – |
| S=C1N(/N=C/c2c3ccccc3cc3ccccc23)C(=Nc2ccccc2)C(=Nc2ccccc2)N1c1ccccc1 | > 100 | – |
| O=C(Nc1cccc(-n2cc(-c3ccncc3)c(-c3cc(O)cc(Cl)c3)n2)c1)Nc1ccc(Cl)c(C(F)(F)F)c1 | 13 | 3.16 |
| Cc1cc(C(=C2C=CC(=Nc3ccccc3)C=C2)c2ccc(Nc3ccccc3)cc2)ccc1N | 2.48 | 1.19 |
| Cc1ccc(-c2nc(C#N)c(S(=O)(=O)n3nc(C)cc3N)o2)cc1 | 42.7 | 19.1 |
